# In PubChem BioAssay AID2675 (National Center for Advancing Translational Sciences (NCATS), 2010):
# In all, about 280,000 compounds went through this assay and about 100 (0.036%) were called active. This list was built around the results that the source calls inconclusive (neither active nor inactive); the mix of calls is not that of the screen. The call rests on the fitted dose curve; in most records, active means well fitted inhibition curve with a large enough effect in the signal ratio, with a control signal flat (not every such curve was filed as active); inconclusive means small, poorly fitted or top-dose-only effect, or effect the other way, or a change in a side signal; inactive means no such curve, though single readings can be large or run the other way; the % refers to the signal ratio. A potency beside an inconclusive call is a rough fit, not a confirmed value. “Side channel” marks fits to a control or component signal instead of the main read-out.
# Molecular target: Muscleblind-like protein 1 (Homo sapiens) (UniProt Q9NR56)
# Test: qHTS Assay for Inhibitors of MBNL1-poly(CUG) RNA binding
# Conditions: TR-FRET MBNL1-His/biotin-(CUG)12 binding, 665/545 ratio; series mostly up to 57.5 µM
# How it was run: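 His-tagged MBNL1 binding to biotinylated (CUG)12 RNA was measured by TR-FRET using terbium anti-His antibody (0.055 ng/ul final) and streptavidin-XL665 (5 nM final). Compounds were titrated 92 nM to 58 uM; 60 min at room temperature.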
# Potency means the concentration at half of the fitted maximal effect; tags describe the fitted curve by direction and shape or compound fluorescence and quenching.
# Sequence of UniProt Q9NR56 (Q9NR56 whole entry, looked up): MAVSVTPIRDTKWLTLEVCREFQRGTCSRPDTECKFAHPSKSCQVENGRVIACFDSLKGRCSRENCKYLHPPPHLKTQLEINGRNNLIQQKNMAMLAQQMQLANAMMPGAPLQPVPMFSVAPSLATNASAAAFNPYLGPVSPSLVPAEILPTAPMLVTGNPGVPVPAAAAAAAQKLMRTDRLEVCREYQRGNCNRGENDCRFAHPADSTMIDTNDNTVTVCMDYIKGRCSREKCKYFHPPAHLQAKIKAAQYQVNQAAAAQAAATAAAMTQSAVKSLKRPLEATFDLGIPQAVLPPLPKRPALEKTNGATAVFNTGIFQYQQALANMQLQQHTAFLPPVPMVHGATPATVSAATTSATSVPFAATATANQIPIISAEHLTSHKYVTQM
row,SMILES,Potency
1,N#C/C(=C\C1=C(N2CCOCC2)C(=C\c2ccccc2)/CC1)C(=O)Nc1ccccc1F,"inconclusive: 0.141 µM [quencher, side channel, full curve, poor fit]"
2,CCCCn1nnc(NC(=O)c2ccc(-c3ccccc3[N+](=O)[O-])o2)n1,"inconclusive: 14.1 µM [quencher, side channel, partial curve]"
3,Cc1ccc(N(C(=O)CS(=O)CC(=O)Nc2ccc(F)cc2)C(C(=O)NC2CCCCC2)c2ccco2)cc1 (stereo not drawn),"inconclusive: 0.1 µM [fluorescent, side channel, full curve]"
4,CC1(C)NC(=O)N(c2ccc([N+](=O)[O-])c(C(F)(F)F)c2)C1=O,"inconclusive: 15.8 µM [quencher, side channel, partial curve]"
5,COc1cc(C(=O)c2nccc3cc(OC)c(OC)cc23)c([N+](=O)[O-])cc1OC,"inconclusive: 31.6 µM [quencher, side channel, partial curve]"
6,CCN1CCN(C(=O)C2=CC(c3ccc(OC)cc3)=NS(=O)(=O)N2C)CC1,"inconclusive: 17.8 µM [quencher, side channel, partial curve]"
7,CCOc1ccc(N2Cc3ccccc3C2)cc1,"inconclusive: 20 µM [quencher, side channel, single point]"
8,COc1cc2c(cc1OC)CN(c1ccc(-c3ccccc3OC)nn1)CC2,"inconclusive: 22.4 µM [quencher, side channel, single point]"
9,O=C(O)C1CC(=O)N(c2ccc(OCc3ccccc3Cl)cc2)C1 (stereo not drawn),inactive
10,O=[N+]([O-])c1ccc(S(=O)(=O)Nc2ccccn2)cc1,"inconclusive: 14.1 µM [quencher, side channel, partial curve]"
11,COc1cc(NC(=O)c2cc3c(=O)n(C)c4ccccc4c3n2C)cc(OC)c1OC,"inconclusive: 3.55 µM [fluorescent, side channel, single point]"
12,CS(=O)(=O)N1CCN(c2ccc([N+](=O)[O-])cc2F)CC1,"inconclusive: 8.91 µM [quencher, side channel, partial curve]"
13,COc1ccc(/C=C/S(=O)(=O)NCc2ccccc2)cc1OC,"inconclusive: 31.6 µM [quencher, side channel, single point]"
14,Cc1ccc(CO/N=C\Cc2snc(Sc3ncc(C(F)(F)F)cc3Cl)c2C#N)cc1,inactive
15,Cc1ccc(Nc2nc(N)c([N+](=O)[O-])c(NCCO)n2)cc1C,"inconclusive: 12.6 µM [quencher, side channel, partial curve]"
16,Cc1cc(Nc2ccc(Cl)cc2)nc(NCc2ccccc2)n1,inactive
17,COc1cc(CN2CCCC(C(=O)c3ccc4c5c(cccc35)CC4)C2)cc(OC)c1O (stereo not drawn),"inconclusive: 0.1 µM [quencher, side channel, full curve, poor fit]"
18,Cc1nnc(N/N=C/c2ccc(-c3ccc(Br)cc3)o2)n1N,"inconclusive: 15.8 µM [quencher, side channel, partial curve]"
19,COc1ccc(C(=O)Cc2cc3ccccc3oc2=O)cc1,"inconclusive: 2.24 µM [quencher, side channel, full curve]"
20,Cc1c(Cl)cccc1NC(=S)NCCC(c1ccccc1)c1ccccc1,"inconclusive: 0.708 µM [inhibitor, full curve, poor fit]"

row,SMILES,Potency
1,Cc1ccc(-c2cc(=O)c3ccccc3[nH]2)cc1,inactive
2,O=C(/C=C/Nc1ccccc1Br)c1ccccn1,"inconclusive: 14.1 µM [quencher, side channel, partial curve]"
3,CN1CCN(c2oc(-c3ccc([N+](=O)[O-])cc3)nc2C#N)CC1,"inconclusive: 7.94 µM [quencher, side channel, partial curve]"
4,COC(=O)CNC(=O)COC(=O)/C=C/c1ccccc1[N+](=O)[O-],"inconclusive: 14.1 µM [quencher, side channel, partial curve]"
5,Cc1ccc(-c2nc3cnccn3c2Nc2ccc3c(c2)OCO3)cc1,"inconclusive: 17.8 µM [quencher, side channel, partial curve]"
6,CCc1ccc(NC(=O)CN(N=Nc2nonc2C)c2nonc2C)cc1,"inconclusive: 17.8 µM [quencher, single point]"
7,COc1cc(/C=C2\SC(N)=NC2=O)cc(Cl)c1O,"inconclusive: 15.8 µM [quencher, partial curve]"
8,COc1ccc(NC(=S)NCc2ccc(S(N)(=O)=O)cc2)c(OC)c1,"inconclusive: 28.2 µM [fluorescent, side channel, partial curve, poor fit]"
9,CCOC(=O)Cc1csc(NC(=O)CSc2nnc(C3CC3)n2C)n1,"inconclusive: 0.794 µM [quencher, side channel, single point]"
10,COc1cc([N+](=O)[O-])ccc1NC(=O)CSc1nccn1C,"inconclusive: 25.1 µM [quencher, side channel, partial curve]"
11,O=C(Cn1nnc(-c2ccccc2)n1)N/N=C/c1ccc(-c2ccc(Cl)cc2)o1,"inconclusive: 1 µM [fluorescent, side channel, partial curve]"
12,O=[N+]([O-])c1cc(Cl)ccc1Oc1ccc(-c2nnco2)cc1,"inconclusive: 15.8 µM [quencher, partial curve]"
13,O=C(NC(Cc1c[nH]c2ccccc12)C(=O)Nc1ccc(OC(F)(F)F)cc1)c1cccs1 (stereo not drawn),"inconclusive: 0.141 µM [quencher, side channel, full curve, poor fit]"
14,Cn1cnnc1Sc1nc([N+](=O)[O-])nn1C,"inconclusive: 15.8 µM [quencher, side channel, partial curve]"
15,CCCn1c2ccccc2c2cnn(CC(=O)NCCCOC)c(=O)c21,inactive
16,O=c1[nH]c2ccccc2nc1/C=C(\O)c1cccs1,"inconclusive: 12.6 µM [quencher, partial curve]"
17,O=C(C[n+]1cccc(NC(=O)c2ccccc2)c1)c1cccc([N+](=O)[O-])c1,"inconclusive: 35.5 µM [quencher, side channel, single point]"
18,c1ccc2oc(-c3ccc(Nc4nc(N5CCCCC5)nc(N5CCOCC5)n4)cc3)nc2c1,"inconclusive: 39.8 µM [fluorescent, side channel, single point]"
19,COc1ccc(-c2nnc(N(C)C(=O)c3ccno3)s2)cc1,"inconclusive: 2.82 µM [quencher, side channel, full curve, poor fit]"
20,COc1ccc(-c2cnc3nc[nH]c(=O)c3n2)cc1,"inconclusive: 2.51 µM [quencher, side channel, full curve]"

row,SMILES,Potency
1,Cc1ccc(C2CN(C)C3(C(=O)Nc4ccccc43)C23COc2ccccc2C3=O)cc1 (stereo not drawn),inactive
2,CN1CCN(c2ccccc2NC(=O)c2ccc(-c3ccccc3[N+](=O)[O-])o2)CC1,"inconclusive: 28.2 µM [quencher, side channel, partial curve]"
3,Cc1cccc(N(CC(=O)Nc2c(C)n(C)n(-c3ccccc3)c2=O)S(C)(=O)=O)c1C,inactive
4,Cc1nnc(N/N=C/c2ccc(O)c([N+](=O)[O-])c2)[nH]c1=O,"inconclusive: 31.6 µM [quencher, side channel, partial curve]"
5,CN(C(=O)COc1nnc(-c2cccs2)c(-c2cccs2)n1)c1ccccc1,"inconclusive: 14.1 µM [quencher, side channel, partial curve]"
6,O=S(=O)(NCc1csc(-c2ccccc2)n1)c1ccc(Cl)s1,"inconclusive: 100 µM [inhibitor, single point]"
7,O=C(NCc1nc2ccccc2[nH]1)C1=C[C@H](C2CCCCC2)C[C@H](OCc2ccc(CO)cc2)O1,inactive
8,COc1ccc(CCNC(=O)CCCCCNc2nc(=S)[nH]c3ccccc23)cc1OC,"inconclusive: 44.7 µM [fluorescent, side channel, partial curve]"
9,Nc1cc([N+](=O)[O-])ccc1N1C(=O)CCCC1=O,"inconclusive: 14.1 µM [quencher, side channel, partial curve]"
10,CSc1nc(-c2ccco2)cc(C(F)(F)F)c1C#N,inactive
11,CC1CN(C(=O)c2ccccc2)OC(c2ccc3c(c2)OCO3)O1 (stereo not drawn),"inconclusive: 25.1 µM [quencher, side channel, partial curve]"
12,CCN1C(=O)Cc2cc(S(=O)(=O)NCCc3ccccc3)ccc21,inactive
13,O=C(Nc1ccccc1)Nc1ccc(F)c([N+](=O)[O-])c1,"inconclusive: 11.2 µM [quencher, side channel, partial curve]"
14,CS(=O)(=O)c1ccc(C(=O)OCc2nnc(-c3ccc(Cl)cc3)o2)cc1[N+](=O)[O-],"inconclusive: 25.1 µM [quencher, side channel, partial curve]"
15,Cc1nc2ccc(Br)cc2c(-c2ccccc2)c1C(=O)O,"inconclusive: 10 µM [fluorescent, side channel, partial curve]"
16,Cc1ccnc(S(=O)(=O)Cc2ccc([N+](=O)[O-])cc2)n1,"inconclusive: 28.2 µM [quencher, side channel, single point]"
17,COc1ccc(/C=N/N=C/c2ccc(OC)c(O)c2)cc1O,"inconclusive: 15.8 µM [quencher, side channel, partial curve]"
18,CCC(=O)c1ccc(OCC(O)Cn2nc(C)c(Br)c2C)cc1 (stereo not drawn),inactive
